# Laboratory results: PubChem BioAssay AID1461 (National Center for Advancing Translational Sciences (NCATS), 2008)
# About 2,300 (1%) of roughly 220,000 compounds were called active. This list was built around the results that the source calls inconclusive (neither active nor inactive); the mix of calls is not that of the screen. Calls follow the shape of the dose curve; as a rule, active = well fitted inhibition curve with a large enough effect; inconclusive = small, poorly fitted or top-dose-only effect, or effect the other way; inactive = no such curve, though single readings can be large or run the other way. No potency is given beside an inconclusive call; the fits are too rough.
# Biological target: Neuropeptide S receptor (Homo sapiens) (UniProt Q6W5P4)
# Assay: qHTS Assay for Antagonists of the Neuropeptide S Receptor: cAMP Signal Transduction; also: nearly all actives have a fitted effect of over 50% in size
# Details: CHO-NPSR cells, cAMP TR-FRET, antagonist mode; activity change, negative = inhibition: at 38.3 µM (top of the series) unless noted
# % is scaled to controls: 0 for no effect and ±100 for the full control effect; potency is read from the fitted curve at half-maximal effect; tags tell the direction and shape of the fitted curve.
# Sequence of UniProt Q6W5P4 (Q6W5P4 whole entry, looked up): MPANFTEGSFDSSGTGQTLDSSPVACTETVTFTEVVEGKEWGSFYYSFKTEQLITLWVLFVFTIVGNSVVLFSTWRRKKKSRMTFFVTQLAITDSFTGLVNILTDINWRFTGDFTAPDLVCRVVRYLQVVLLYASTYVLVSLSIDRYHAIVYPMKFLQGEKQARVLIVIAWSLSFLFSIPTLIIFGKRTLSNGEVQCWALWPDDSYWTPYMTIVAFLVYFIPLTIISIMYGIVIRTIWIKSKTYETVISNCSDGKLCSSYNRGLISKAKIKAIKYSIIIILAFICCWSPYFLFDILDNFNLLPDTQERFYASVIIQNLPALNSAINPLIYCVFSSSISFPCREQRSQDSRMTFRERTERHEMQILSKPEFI
Compound,"activity change, negative = inhibition",Potency
Cc1ncc(CC(=O)n2cc(C(=O)c3cc(F)ccc3O)cn2)s1,inactive: -2.02% [at 46.1 µM],–
COc1ccccc1Cn1c(SCC(N)=O)nc2c(oc3ccccc32)c1=O,inactive: -23.9%,–
O=C(CSCc1ccc(F)cc1)NC1CCCC1,inactive: -1.97% [at 46.1 µM],–
Cc1ccc(NC(=O)CCN2C(=O)c3ccncc3C2=O)cc1,–,"inconclusive [inhibitor, single point]"
COc1cc2ccccc2c2c1CCCC2=O,–,"inconclusive [inhibitor, single point]"
Cc1ccccc1OCc1nnc(SCC(=O)Nc2ccc3c(c2)oc2ccccc23)n1C,–,"inconclusive [inhibitor, single point]"
CCOc1cccc2sc(NC(=O)c3ccc(Br)s3)nc12,–,"inconclusive [inhibitor, single point]"
O=C(OCn1nnc2ccccc2c1=O)c1cc(-c2ccccc2)nc2ccccc12,inactive: -15%,–
CCn1c(=O)c2cc(C(=O)Nc3cc(C)on3)sc2c2ccccc21,–,"inconclusive [inhibitor, single point]"
Cc1cccc(OCc2n(CC(=O)OC3CC(C)CCC3C(C)C)c3ccccc3[n+]2C)c1 (stereo not given),–,"inconclusive [activator, single point]"
Cc1cccc(C)c1NC(=O)CNC(=O)C(NC(=O)c1ccc(C(C)(C)C)cc1)C(C)C (stereo not given),–,"inconclusive [inhibitor, single point]"
Cn1c(=O)c(C(=O)Nc2ncccn2)c(O)c2ccccc21,–,"inconclusive [inhibitor, single point]"
CCOC(=O)c1c(NC(=O)Nc2ccc(C)cc2)sc2c1CCN(C)C2,–,"inconclusive [activator, partial curve]"
CCCN(CC(=O)Nc1cc(Cl)cc(Cl)c1)CC(=O)Nc1ccc(F)c(F)c1F,–,"inconclusive [inhibitor, single point]"
COc1ccc(NC(=S)N(CCCN2CCC(C)CC2)Cc2cccs2)cc1,inactive: -14%,–
CC(C)COC(=O)CNc1n[nH]c(=S)[nH]c1=O,–,"inconclusive [inhibitor, single point]"
CCS(=O)(=O)/N=C(\N)c1ccccc1,–,"inconclusive [inhibitor, partial curve, poor fit]"
CN1CCN(C(=S)NC(=O)c2ccc(Br)cc2)CC1,–,"inconclusive [inhibitor, single point]"
Cc1cc(C)nc(-n2nc(C)cc2NC(=O)CN2CCc3ccccc3C2)n1,–,"inconclusive [inhibitor, single point]"
COc1ccc(OCC(=O)N2CCN(c3nnc(-c4ccccc4)c4ccccc34)CC2)cc1,–,"inconclusive [inhibitor, single point]"
CCOc1cccc(CN2CCN(c3cccc(C(F)(F)F)c3)CC2)c1O,–,active: 10 µM
O=C(CN(c1ccc(Cl)c(C(F)(F)F)c1)S(=O)(=O)c1ccccc1)N/N=C/c1cccc2c1OCCO2,–,"inconclusive [inhibitor, partial curve]"
COc1cc(C2=NOC(C(=O)NCc3cccs3)C2)cc(OC)c1OC (stereo not given),inactive: 32.4% [at 46.1 µM],–
CCc1ccc(C(=O)CSC2=C(C#N)C(c3ccco3)C(C(C)=O)=C(C)N2)cc1 (stereo not given),–,"inconclusive [inhibitor, single point]"

Compound,"activity change, negative = inhibition",Potency
O=C(Nc1cc(Cl)ccn1)C1(c2ccccc2)CC1(Cl)Cl (stereo not given),–,"inconclusive [activator, single point]"
CC(=O)N1CCc2cc(S(=O)(=O)NC(C(=O)NC3CCCc4ccccc43)C(C)C)ccc21 (stereo not given),inactive: -10.5% [at 46.1 µM],–
CN(C)/C=N/NC(=O)c1ccccc1,inactive: 24.8%,–
O=C(Nc1ccccc1)c1ccc(-c2ccc(Br)cc2)o1,–,"inconclusive [activator, full curve, poor fit]"
Cc1cc(C)c(S(=O)(=O)Nc2cc(SCC(=O)O)c(O)c3ccccc23)cc1C,inactive: -19.1%,–
CC(N=c1ccccn1C(=O)Nc1ccc(Cl)cc1)c1ccco1 (stereo not given),inactive: -7.4% [at 7.67 µM],–
CCOC(=O)c1ccc(NC(=O)C2(c3ccc(OC)cc3)CCCC2)cc1,–,"inconclusive [inhibitor, partial curve]"
CCOC(=O)c1ccc(Oc2nc(NC(C)(C)C)nc(N(C)C)n2)cc1,–,"inconclusive [inhibitor, partial curve]"
Cc1ccc(NC(=O)Cn2c(O)c(N=NC(=O)c3ccncc3)c3ccccc32)cc1,inactive: -29.8%,–
COc1ccc(N2CCN(C(c3cccs3)C(C)NS(=O)(=O)c3ccccc3)CC2)cc1 (stereo not given),–,"inconclusive [inhibitor, single point]"
CCOC(=O)C(Oc1ccc2c(-c3ccc(OC)cc3)cc(=O)oc2c1C)c1ccccc1 (stereo not given),–,"inconclusive [inhibitor, partial curve]"
O=C1/C(=C/c2cccnc2)Oc2cc(OS(=O)(=O)c3ccc(Cl)cc3)ccc21,inactive: -11.3% [at 46.1 µM],–
N#C/C(=C\c1ccc(-c2cccc([N+](=O)[O-])c2)o1)c1nnc(N2CCOCC2)n1-c1ccccc1,inactive: -26.1%,–
Cc1cc(N2C(=O)C3CC=CCC3C2=O)cc(C)c1Br (stereo not given),–,"inconclusive [activator, partial curve]"
COc1ccc2[nH]c3c(N4CCC(O)(c5cccc(C(F)(F)F)c5)CC4)ncnc3c2c1,–,"inconclusive [inhibitor, partial curve]"
Cn1cccc1/C=C1\CC(C(C)(C)C)C/C(=C\c2cccn2C)C1=O (stereo not given),–,active: 10 µM
CCC(C)NC(=O)C1c2cc(OC)c(OC)cc2C(=O)N(C)C1c1cccs1 (stereo not given),–,"inconclusive [inhibitor, partial curve]"
COc1ccc(C(=O)Nc2ccccc2N2CCN(C(=O)C(C)C)CC2)cc1Cl,–,"inconclusive [inhibitor, partial curve]"
O=C(Nc1nc(-c2ccc(Cl)s2)cs1)c1ccccc1,–,"inconclusive [inhibitor, full curve, poor fit]"
CN1CCc2c(sc3c2c(=O)n(-c2ccccc2)c2nnc(SCc4ccc(Cl)cc4)n32)C1,–,"inconclusive [inhibitor, partial curve]"
COC(=O)c1cnn2c(C(F)(F)F)cc(-c3ccc(F)cc3)nc12,inactive: 13% [at 46.1 µM],–
OC(CNCc1ccco1)Cn1c2ccc(Br)cc2c2cc(Br)ccc21 (stereo not given),–,"inconclusive [inhibitor, single point]"
COCC(=O)N(Cc1cc2ccccc2[nH]c1=O)c1ccc(OC)cc1,inactive: 9.66% [at 7.67 µM],–
COc1cc(/C=C/C(=O)c2ccc(NS(=O)(=O)c3ccc(C)cc3)cc2)ccc1OC(F)F,–,"inconclusive [inhibitor, single point]"

Compound,"activity change, negative = inhibition",Potency
CCN(CC)CCN1C(=O)C(O)=C(C(=O)c2cccs2)C1c1ccc(C)o1 (stereo not given),inactive: -12% [at 46.1 µM],–
COc1cccc(C2=CC(c3ccc(N(C)C)cc3)n3ncnc3N2)c1 (stereo not given),–,"inconclusive [inhibitor, single point]"
CCOC(=O)Cn1c(CN(Cc2ccccc2)Cc2ccccc2)nc2c1c(=O)[nH]c(=O)n2C,–,"inconclusive [inhibitor, partial curve]"
CCOc1ccccc1N1CCN(Cc2cn[nH]c2-c2ccc(F)cc2)CC1,–,"inconclusive [activator, partial curve]"
COc1ccc(CSc2nc(CSC)cc(N3CCOCC3)n2)cc1,–,"inconclusive [inhibitor, single point]"
O=C(CSc1nnc(COc2ccc(Cl)cc2)n1Cc1ccco1)c1ccccc1F,–,"inconclusive [inhibitor, single point]"
CNc1nc(SCc2ccc(C)cc2)nc2c1CCCC2,–,"inconclusive [inhibitor, single point]"
COC(=O)C1=C(C)NC(=O)NC1c1ccc([N+](=O)[O-])o1 (stereo not given),inactive: 7.86%,–
CCCN(CCC)C(=O)CC(c1ccccc1)c1ccc(C)cc1O (stereo not given),–,"inconclusive [inhibitor, single point]"
O=C(NCCc1c[nH]c2ccccc12)c1cc2sccc2n1Cc1ccccc1,–,"inconclusive [inhibitor, single point]"
O=C(Nc1cccc(-c2cnc3ccccc3n2)c1)c1cccc(NC(=O)c2ccco2)c1,–,"inconclusive [inhibitor, partial curve, poor fit]"
CCOCC(=O)N1CCN(c2cccc(Cl)c2)CC1,inactive: 0.262%,–
CC(=O)Nc1ccc(C(=O)CSc2nnnn2C(C)C)cc1,inactive: 2.9% [at 46.1 µM],–
O=S(=O)(NCc1ccccc1)c1ccc(S(=O)(=O)N(Cc2ccccn2)Cc2ccco2)cc1,inactive: -16.6% [at 46.1 µM],–
COc1ccc(NC(=S)N2CCN(C/C=C/c3ccccc3)CC2)cc1OC,inactive: -14.7% [at 46.1 µM],–
CCOC(=O)N(CC)OC(=O)Nc1ccc(Cl)cc1,inactive: -7.94% [at 46.1 µM],–
CCN(CC)S(=O)(=O)c1ccc(OC)c(NC(=O)c2cc([N+](=O)[O-])ccc2Cl)c1,–,"inconclusive [inhibitor, partial curve, poor fit]"
CCN(CC)c1nc(SCCOC(=O)Nc2ccccc2)nc(N(CC)CC)n1,–,"inconclusive [inhibitor, single point]"
COc1ccc(N2C(=O)C(Cl)=C(Nc3ccccc3OC)C2=O)cc1,inactive: -4.36%,–
O=C(c1cnn(C(=O)c2cccc(S(=O)(=O)N3CCOCC3)c2)c1)c1cc(Cl)cc(Cl)c1O,inactive: 26.8%,–
Cc1ccc(NC(=O)CNC(=O)c2cccs2)cc1S(=O)(=O)Nc1ccc(Cl)cc1,inactive: -29.7%,–
O=[N+]([O-])c1ccc(-c2nc(-c3ccc(F)cc3)c(-c3ccncc3)[nH]2)cc1,–,active: 7.94 µM
